# This list was built around the results that the source calls inconclusive (neither active nor inactive); the mix of calls is not that of the screen. Potencies of inconclusive entries are left out as doubtful fits. Active and inactive are the calls of the source. Calls follow the shape of the dose curve; as a rule, active = well fitted inhibition curve with a large enough effect; inconclusive = small, poorly fitted or top-dose-only effect; inactive = no such curve, though single readings can be large or run the other way.
# Assay: BET inhibitor-based combinations targeting novel dependencies in MECOM-rearranged (r) AML: OCI-AML3 cell line (AID 2202232); also: nearly all actives have a fitted effect of over 35% in size
# Details: CellTiter-Glo luminescence, 48 h; Potency: OCI-AML3 viability; viability (% of control): at 46 µM (top of the series)
# Text: Ecotropic viral insertion site 1 (EVI1) is located on chromosome 3q26.2 as part of the MECOM (MDS and EVI1 complex) locus. Under normal hematopoiesis, EVI1 is a regulator of hematopoietic stem cell maintenance and self-renewal and EVI1 levels decrease as the cells differentiate. In approximately 5-10% of de novo acute myeloid leukemia (AML) EVI1 is aberrantly expressed, including Chromosomal inv(3)(q21;q26.2) or t(3;3)(q21;q26.2) alterations (MECOM-r) that account for about 50% of AML with EVI1 overexpression 31. AMLs with high levels of EVI1 have a poor prognosis and an overall survival time averaging between 10-14 months. EVI1 overexpression confers resistance in leukemia cells, highlighting the need to develop new targeted therapies for EVI1 overexpressing AMLs.
# Here, we performed an unbiased chemical drug screening by evaluating the single agent activity of a collection of 2,480 oncology-focused, approved and investigational drugs (NCATS Mechanism Interrogation Plates, MIPE v5.0) against a panel of seven AML cell lines. These included four MECOM-r cell-lines (AML-191, AML-194, UCSD-AML1 and HNT-34) and three non-MECOM-r AMLs (MV4-11, OCI-AML3 and SET-2). Exploiting the mechanistic redundancy built in the library, we identified target-level sensitivities in MECOM-r AML cells and relative activity as compared to other AML subtypes.
# A collection of 2480 mechanistically annotated dugs (MIPE v5.0) was used to screen four 3q26.2 rearranged AML cell lines and three non-3q26.2 rearranged AML cell lines. This library purposely exploits redundancy by including multiple inhibitors of key onco-targets, while simultaneously encompassing mechanistic diversity, targeting more than 800 distinct mechanisms of action. Briefly, cells were seeded in 5 uL of growth media using a Multidrop Combi dispenser into 1536 well white polystyrene tissue culture treated plates (Corning) at a density of 500cells/well. For each cell-line, for each of the 2480 drugs in MIPE v5.0 library, an 11-point dose curve was generated via a 1536 pin-tool. Plates were incubated for 48 hr at standard incubator conditions, covered by a stainless steel gasketed lid to prevent evaporation. Cell viability was determined by luminescence based, Cell Titer Glo assay (Promega). In detail, 3 uL of Cell Titer Glo were added to each well and plates were incubated at room temperature for 15 min with a stainless-steel lid in place. Luminescence readings were taken using a Viewlux (PerkinElmer) with a 2 s exposure time per plate. Compound dose-response curves were normalized to DMSO and empty well controls on each plate. Quantitative drug activity data from dose-response curves was determined utilizing area Under the Curve (AUC) and Z-transformed AUC (Z-AUC, a mean-centering transformation applied to each individual cell-line screened).
# Potency is read from the fitted curve at half-maximal effect; tags tell the direction and shape of the fitted curve.
Structure (SMILES),Potency,viability (% of control)
COc1c(Nc2ncc(Cl)c(N[C@H]3[C@H](C(N)=O)[C@@H]4C=C[C@@H]3C4)n2)ccc2c1CCC(N1CCOCC1)CC2 (stereo not given in full),"inconclusive [inhibitor, full curve]",
CC(C)(CO)n1cc(C(=O)c2cncc(NC(=O)Cc3ccc(Cl)cn3)c2)c2cnc(N)nc21,,inactive: 113%
CS(=O)(=O)c1ccc(-c2nnc(/C=C/c3nnc(-c4ccc(C#N)cc4)o3)n2-c2ccccc2Cl)nc1,"inconclusive [inhibitor, partial curve, poor fit]",
CCO[C@@H]1OC(=O)C[C@@H]1NC(=O)[C@@H]1CCCN1C(=O)[C@@H](NC(=O)c1ccc(N)c(Cl)c1)C(C)(C)C,"inconclusive [inhibitor, partial curve, poor fit]",
CCc1c2c(nc3ccc(O)cc13)-c1cc3c(c(=O)n1C2)COC(=O)[C@]3(O)CC,active: 0.0093 µM,
Clc1ccc(COC(Cn2ccnc2)c2ccc(Cl)cc2Cl)c(Cl)c1 (stereo not given),"inconclusive [inhibitor, partial curve, poor fit]",
COc1cc(C)c(Sc2cnc(NC(=O)c3ccc(CNC(C)C(C)C)cc3)s2)cc1C(=O)N1CCN(C(C)=O)CC1 (stereo not given),active: 20.9 µM,
CNC(=O)c1ccc(N2C(=S)N(c3ccc(C#N)c(C(F)(F)F)c3)C(=O)C2(C)C)cc1F,"inconclusive [inhibitor, full curve, poor fit]",
C[C@H]1Oc2cc(cnc2N)-c2c(nn(C)c2C#N)CN(C)C(=O)c2ccc(F)cc21,"inconclusive [inhibitor, partial curve, poor fit]",
COc1nc(OCc2cccc(-c3ccccc3)c2C)ccc1CNCCNC(C)=O,"inconclusive [inhibitor, partial curve, poor fit]",
O=C1CSC(=O)N1C(CCc1ccncc1)COc1ccc(-c2cccc([N+](=O)[O-])c2)cc1 (stereo not given),"inconclusive [inhibitor, full curve]",
O=C(Nc1cnn2ccc(N3CCC[C@@H]3c3cc(F)ccc3F)nc12)N1CC[C@H](O)C1,,inactive: 125%
COC(=O)C[C@](O)(CCCC(C)(C)O)C(=O)O[C@@H]1C(OC)=C[C@]23CCCN2CCc2cc4c(cc2[C@H]13)OCO4,"inconclusive [inhibitor, full curve]",
CC(=O)Nc1cc(Oc2ccc3c(nc(Nc4ccc(F)cc4F)n3C)c2C)ccn1,active: 0.934 µM,
NC[C@H](O)c1ccc(O)c(O)c1,,inactive: 102%
O=C1CCCC2=C1C(c1[nH]ncc1Cl)N=C(Nc1nc3ccccc3o1)N2 (stereo not given),"inconclusive [inhibitor, partial curve]",
O=C(O)C1=CO[C@@H](O[C@@H]2O[C@H](CO)[C@@H](O)[C@H](O)[C@H]2O)[C@@H]2C(CO)=CC[C@H]12,"inconclusive [inhibitor, full curve, poor fit]",
NC(N)=NC(N)=NCCc1ccccc1,active: 16.6 µM,
C=CCN(/C=C1\C(=O)O[C@@H](COC)[C@]2(C)C1=C(O)C(=O)C1=C2[C@@H](OC(C)=O)C[C@]2(C)C(=O)CC[C@H]12)CC=C,,inactive: 6.51%
CC(C)Cc1ccc(C(C)C(=O)O)cc1 (stereo not given),"inconclusive [inhibitor, full curve, poor fit]",

Structure (SMILES),Potency,viability (% of control)
Cc1c(O)cccc1C(=O)NC(CSc1ccccc1)C(O)CN1CC2CCCCC2CC1C(=O)NC(C)(C)C (stereo not given),"inconclusive [inhibitor, partial curve, poor fit]",
Cc1c(C(=O)N2CCOc3ccc(-c4ccc(N)nc4)cc3C2)ccc(S(C)(=O)=O)c1F,"inconclusive [inhibitor, partial curve]",
CCN1CCN(CC(=O)Nc2ccc(-c3cccc4c(=O)cc(N5CCOCC5)oc34)c3sc4ccccc4c23)CC1,active: 2.57 µM,
COc1cc2c(cc1OC(C)C)[C@H](c1ccc(Cl)cc1)N(c1ccc(N(C)CC3CCC(N4CCN(C)C(=O)C4)CC3)cc1)C(=O)C2 (stereo not given in full),active: 11.8 µM,
CC(=O)Oc1ccccc1C(=O)O,"inconclusive [inhibitor, partial curve, poor fit]",
CC(C)=CCC/C(C)=C/CC/C(C)=C/CSc1ccccc1C(=O)O,"inconclusive [inhibitor, partial curve, poor fit]",
Cc1cc(Nc2cc(N)ncn2)c(=O)n2c1C(=O)NC21CCCCC1,"inconclusive [inhibitor, partial curve, poor fit]",
Cc1ccc2nc(NCCN)c3ncc(C)n3c2c1,active: 9.34 µM,
COc1ccc(C2CNC(=O)C2)cc1OC1CCCC1 (stereo not given),,inactive: 117%
COc1ccc(CCN(C)CCCC(C#N)(c2ccc(OC)c(OC)c2)C(C)C)cc1OC (stereo not given),"inconclusive [inhibitor, partial curve, poor fit]",
Cc1cccc(-c2[nH]c(CNc3ccccc3F)nc2-c2ccc3ncnn3c2)n1,"inconclusive [inhibitor, single point]",
CC[C@H](C)C(=O)O[C@H]1C[C@H](O)C=C2C=C[C@H](C)[C@H](CC[C@@H](O)C[C@@H](O)CC(=O)O)[C@H]21,"inconclusive [inhibitor, partial curve, poor fit]",
CCN(CC)CCCCNc1ncc2c(n1)N(C)C(=O)N(c1c(Cl)c(OC)cc(OC)c1Cl)C2,"inconclusive [inhibitor, partial curve, poor fit]",
C[C@]12CCCN1CC1=NNC(=O)c3cc(F)cc4[nH]c2c1c34,active: 20.9 µM,
CC1(C)NC(=O)N(c2ccc([N+](=O)[O-])c(C(F)(F)F)c2)C1=O,,inactive: 121%
O=c1cc(N2CCOCC2)oc2c(-c3ccccc3)cccc12,"inconclusive [inhibitor, partial curve]",
COc1cc2c(cc1-c1c(C)noc1C)ncc1[nH]c(=O)n([C@H](C)c3ccccn3)c12,active: 0.468 µM,
CC1Cc2ccccc2N1C(=O)Cc1nc(N2CCOCC2)cc(=O)[nH]1 (stereo not given),"inconclusive [inhibitor, partial curve]",
CCCc1cc(C)[nH]c(=O)c1CNC(=O)c1cc(-c2ccc(N3CCN(C(C)C)CC3)nc2)cc2c1cnn2C(C)C,active: 18.6 µM,
CCN(C)S(=O)(=O)Nc1ccc(F)c(C(=O)c2c[nH]c3ncc(-c4cnc(C5CC5)nc4)cc23)c1F,"inconclusive [inhibitor, partial curve, poor fit]",
